Consider 13 compounds from paper PMC11784200, “Insights into antibiotic resistance promoted by quinolone exposure” (Antimicrobial Agents and Chemotherapy, 2024).

≈ marks a conversion by molar mass, not a printed value.

Holding throughout (type): cell-based
Experiment [1] deals with E. coli MG1655. The experiment in a line: microbe, parasite or virus in culture. The settings on record: for MIC: Escherichia coli, read-out: Solid-agar MIC. The protocol: (§1) Minimum inhibitory concentration (MIC) values were determined in triplicate as described ([55]). […] All compounds were purchased from Sigma.
The subject of experiment [2] is E. coli MG1655. Put plainly: Broth-based MIC. The conditions noted are these: for MIC: Escherichia coli. As to the method:
as §1

In experiment [3] the test system is E. coli MG1655. The conditions noted are these: for Antibiotic resistance induced by sub-MIC treatment with the compound: E. coli MG1655, 0.25×, 0.5×, 1× MIC, 24 h.
The subject of experiment [4] is E. coli MG1655.
Where [5] appears, read: E. coli MG1655, read-out: Broth-based MIC.
Setting [6] is: treatment with the compound, E. coli MG1655.

In the case of `CO[C@H]1/C=C/O[C@@]2(C)Oc3c(C)c(O)c4c(O)c(c(/C=N/N5CCN(C)CC5)c(O)c4c3C2=O)NC(=O)/C(C)=C\C=C\[C@H](C)[C@H](O)[C@@H](C)[C@@H](O)[C@@H](C)[C@H](OC(C)=O)[C@@H]1C` [RIF, rifampin], the MIC in the experiment on E. coli MG1655 [1] worked out at 32 µg/mL (≈ 38.9 µM).
Still for that read-out and setting: under `Oc1cc(Cl)ccc1Oc1ccc(Cl)cc1Cl` [TRI, triclosan] stands 0.08 µg/mL (≈ 0.276 µM).
With `CCn1cc(C(=O)O)c(=O)c2cc(F)c(N3CCNCC3)cc21` [NOR, norfloxacin], the MIC in the experiment with E. coli MG1655 [2] (setting [5]) is 0.032 µg/mL (≈ 0.1 µM); in the experiment on E. coli MG1655 [1], 0.128 µg/mL (≈ 0.401 µM).
With `O=C(N[C@H](CO)[C@H](O)c1ccc([N+](=O)[O-])cc1)C(Cl)Cl` [CHL, chloramphenicol], the “Antibiotic resistance induced by sub-MIC treatment with the compound” value in the experiment with E. coli MG1655 [3] is on record as “resistance to the same antibiotic administered during treatment”. Moreover, the MIC in the experiment with E. coli MG1655 [2] (setting [5]) and in the experiment with E. coli MG1655 [1] was 4 µg/mL (≈ 12.4 µM) in each case.
`O=C(O)c1cn(C2CC2)c2cc(N3CCNCC3)c(F)cc2c1=O` [CIP, ciprofloxacin]: the MIC was found to be 0.016 µg/mL (≈ 0.0483 µM) in the experiment on E. coli MG1655 [2] (setting [5]); 0.016 µg/mL (≈ 0.0483 µM) with E. coli MG1655 [2] (broth-based, MG1655 wild type, read-out: MIC); 0.016 µg/mL (≈ 0.0483 µM) in the experiment with E. coli MG1655 [1].
For `[H]/N=C(/N)N[C@H]1[C@H](O)[C@@H](O)[C@H](O[C@@H]2O[C@@H](C)[C@](O)(C=O)[C@H]2O[C@@H]2O[C@@H](CO)[C@H](O)[C@@H](O)[C@@H]2NC)[C@@H](N/C(N)=N\[H])[C@@H]1O` [STR, streptomycin], the MIC with E. coli MG1655 [1] is 24 µg/mL (≈ 41.3 µM).
`CCn1cc(C(=O)O)c(=O)c2cc3c(cc21)OCO3` [OXO, oxolinic acid]: in the experiment with E. coli MG1655 [3], the “Antibiotic resistance induced by sub-MIC treatment with the compound” value is “increased frequency of resistance to KAN, TET, AMP, CHL, CIP, and OXO”. Moreover, the MIC with E. coli MG1655 [2] (setting [5]) and with E. coli MG1655 [1] was 0.4 µg/mL (≈ 1.53 µM) throughout.
`CO[C@H]1[C@H](OC(=O)c2ccc(C)[nH]2)[C@H](O)[C@@H](Oc2ccc3c(O)c(NC(=O)c4c[nH]c(C(=O)Nc5c(O)c6ccc(O[C@H]7OC(C)(C)[C@@H](OC)[C@H](OC(=O)c8ccc(C)[nH]8)[C@@H]7O)c(C)c6oc5=O)c4C)c(=O)oc3c2C)OC1(C)C` [COU, coumermycin A1]: the “Frequency of KAN resistance, fold lower than that seen with CIP” value with E. coli MG1655 [3] (setting [6]) is 10 fold. The MIC in the experiment on E. coli MG1655 [2] (setting [5]) came to 16 µg/mL (≈ 14.4 µM).
For `COc1c(N2C[C@@H]3CCCN[C@@H]3C2)c(F)cc2c(=O)c(C(=O)O)cn(C3CC3)c12` [MXF, moxifloxacin], the MIC in the experiment with E. coli MG1655 [2] (setting [5]) amounted to 0.032 µg/mL (≈ 0.0797 µM).
On to `CN(C)[C@@H]1C(O)=C(C(N)=O)C(=O)[C@@]2(O)C(O)=C3C(=O)c4c(O)cccc4[C@@](C)(O)[C@H]3C[C@@H]12` [TET, tetracycline], for which the MIC in the experiment on E. coli MG1655 [2] (setting [5]) and in the experiment with E. coli MG1655 [1] was 1.2 µg/mL (≈ 2.7 µM) throughout.
Turning to `CO[C@@]12[C@H](COC(N)=O)C3=C(C(=O)C(C)=C(N)C3=O)N1C[C@@H]1N[C@@H]12` [MMC, mitomycin C], in the experiment on E. coli MG1655 [4], the “CHL-resistant colonies after exposure” value is “CHL-resistant colonies were obtained”. For the same compound, the MIC with E. coli MG1655 [2] (setting [5]) was found to be 2 µg/mL (≈ 5.98 µM); in the experiment on E. coli MG1655 [1], 1.5 µg/mL (≈ 4.49 µM).
On to `CC1(C)S[C@@H]2[C@H](NC(=O)[C@H](N)c3ccccc3)C(=O)N2[C@H]1C(=O)O` [AMP, ampicillin], for which the “Frequencies of resistance, fold lower than that seen with CIP” value in the experiment with E. coli MG1655 [3] (setting [6]) is listed as “about 100 fold”. Besides, the MIC in the experiment on E. coli MG1655 [2] (setting [5]) and with E. coli MG1655 [1] was 4 µg/mL (≈ 11.4 µM) throughout.
With `NC[C@H]1O[C@H](O[C@H]2[C@H](O)[C@@H](O[C@H]3O[C@H](CO)[C@@H](O)[C@H](N)[C@H]3O)[C@H](N)C[C@@H]2N)[C@H](O)[C@@H](O)[C@@H]1O` [KAN, kanamycin], the “Broth-based MIC” value in the experiment with E. coli MG1655 [2] (E. coli MG1655) came to 4 µg/mL. In the experiment with E. coli MG1655 [1], the “Solid-agar MIC” value came out at 6 µg/mL.
